# From PubChem BioAssay AID485364 (National Center for Advancing Translational Sciences (NCATS), 2010)
# About 11,000 (3.1%) of roughly 360,000 compounds were called active. This list was built around the results that the source calls inconclusive (neither active nor inactive); the mix of calls is not that of the screen. The call rests on the fitted dose curve; in most records, active means well fitted inhibition curve with a large enough effect; inconclusive means small, poorly fitted or top-dose-only effect; inactive means no such curve, though single readings can be large or run the other way. Potencies of inconclusive entries are doubtful fits and often do not repeat.
# Target: Schistosoma mansoni thioredoxin glutathione reductase (TGR) (UniProt Q962Y6)
# Test: qHTS Assay for the Inhibitors of Schistosoma Mansoni Peroxiredoxins; further: nearly all actives have a fitted effect of over 60% in size
# Details: purified TGR, DTNB reduction, TNB absorbance 405 nm; activity change, negative = inhibition: at 114 µM (top of the series) unless noted
# Method in brief: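 TGR 20 nM + NADPH 100 uM (dispensed conc.), cpd preinc 15 min RT; start with NADPH (500 uM addition) then DTNB (15 mM addition). Kinetic TNB absorbance, 405 nm filter. Four-parameter Hill fit across titration.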
# On the % scale 0 is the no-effect control and ±100 the full control effect; potency means the concentration at half of the fitted maximal effect; tags describe the fitted curve by direction and shape.
SMILES,Potency,"activity change, negative = inhibition"
COc1ccccc1Cn1c(=S)[nH]c2cc(C(=O)NCCN(C)C)ccc2c1=O,"inconclusive: 44.7 µM [inhibitor, partial curve]",
O=C(O)Cn1cc(/C=C2\C(=O)NC(=O)N(c3ccc(F)cc3)C2=O)c2ccccc21,"inconclusive: 100 µM [inhibitor, single point]",
COc1cc(-c2cc(=O)c3c(O)c(OC)c(OC)c(O)c3o2)ccc1O,"inconclusive: 22.4 µM [inhibitor, single point]",
Fc1ccc(NC(=S)Nc2ccccc2Cl)cc1,"inconclusive: 56.2 µM [inhibitor, partial curve]",
C=CCn1c(SCC(C)=O)nc2scc(-c3ccc(C)o3)c2c1=O,active: 15.8 µM,
Cc1cc(C)nc(N/N=C/c2cc(Br)ccc2O)n1,inactive,
COc1cc(/C=C2\CCCc3c2nc2ccccc2c3C(=O)O)cc(OC)c1O,active: 20 µM,
Cc1ccc(C(=O)N/C(=C/c2ccco2)C(=O)Nc2cccc(C)c2)cc1,"inconclusive: 50.1 µM [inhibitor, partial curve]",
CCOc1ccccc1N1CCN(CC(=O)Nc2ccccc2C(=O)NC2CC2)CC1,inactive,
CCC1(CC)NC(=O)N(CC(=O)Nc2sc3c(c2C(N)=O)CCC3)C1=O,active: 44.7 µM,
O=C1CC(NCCC2=CCCCC2)C(=O)N1c1cccc(Cl)c1Cl (configuration not stated),"inconclusive: 100 µM [inhibitor, single point]",
CCC(C)c1ccccc1N1CC(C(=O)NCCC2=CCCCC2)CC1=O (configuration not stated),inactive,
CCC(C)/C=C/C1=CC2=C(Cl)C(=O)C3(C)OC(=O)C(C(=O)C(C)C(C)O)C3C2=CO1 (configuration not stated),active: 50.1 µM,
COC(=O)C1CC23C=CCN4CCC5(c6ccccc6NC15C2C)C43 (configuration not stated),"inconclusive: 50.1 µM [inhibitor, partial curve]",
O=C1CC(NCc2ccncc2)C(=O)N1c1ccc(Cl)cc1 (configuration not stated),"inconclusive: 39.8 µM [inhibitor, full curve]",
CC1=NN(c2ccccc2)C(=O)C1C(=O)c1ccc(Cl)cc1 (configuration not stated),inactive,
COc1ccc(C2CC(=O)N3CN(c4ccc(C)c(Cl)c4)CSC3=C2C#N)cc1OC (configuration not stated),active: 50.1 µM,
Cc1ccc(N/N=C(\C#N)C(N)=S)c(C)c1,"inconclusive: 56.2 µM [inhibitor, partial curve]",
CCOc1ccc(CCNC(=O)c2cc3cc4cc(OC)ccc4nc3s2)cc1OCC,inactive,
CC1(C)CC(=O)C2=C(C1)O[C@@]1(CCCCN3C(=O)c4ccccc4C3=O)Cc3cc(C#N)ccc3C2O1,"inconclusive: 0.0631 µM [inhibitor, full curve, poor fit]",
CCOc1ccc(NC(=O)CCc2nc3cccnc3n2Cc2ccc(OC)cc2)cc1,inactive,
CSc1ccc(/C=N\Nc2nncn2N)cc1,inactive,
O=C(CCS(=O)(=O)c1nc(-c2cccs2)cc(C(F)(F)F)n1)Nc1ccc(Br)cc1,"inconclusive: 2.51 µM [inhibitor, full curve, poor fit]",
COc1ccccc1N1CCN(Cc2cc(C)c(C)cc2O)CC1,inactive,

SMILES,Potency,"activity change, negative = inhibition"
COC1=CC(=Cc2c(N)n3nc(CC(=O)N4CCCCC4)sc3nc2=O)C=C(OC)C1=O,"inconclusive: 35.5 µM [inhibitor, partial curve]",
COc1ccc(NS(=O)(=O)c2cc(N/C(=N\S(=O)(=O)c3ccccc3)c3ccc(F)cc3)ccc2Cl)cc1,inactive,
COc1ccc2sc(NC(C)=O)nc2c1,inactive,
COc1ccc(OC)c(NC(=O)c2nc(S(=O)(=O)Cc3ccccc3)ncc2Cl)c1,active: 3.16 µM,
COc1ccc(-n2c(C)c(C)c3c(NCCO)ncnc32)cc1,"inconclusive: 89.1 µM [inhibitor, partial curve]",
Cc1ccc(NC(=O)c2cc(-c3cccs3)nc3ccccc23)nc1,"inconclusive: 35.5 µM [inhibitor, single point]",
NS(=O)(=O)c1ccc(CNC(=S)Nc2ccc(F)c(Cl)c2)cc1,"inconclusive: 79.4 µM [inhibitor, partial curve, poor fit]",
COc1cccc(-c2nnc(SCC(=O)OC(C)C)n2Cc2ccco2)c1,inactive,
Cc1ccc(-c2nc(CSCC(=O)N3CCN(C(=O)c4ccco4)CC3)c(C)o2)cc1,active: 39.8 µM,
CNc1nnc(-c2ccco2)s1,inactive,
CCOc1ccc(NC(=O)CSc2nc(-c3cccc(Cl)c3)nc3c2Cc2c(CO)cnc(C)c2O3)cc1,"inconclusive: 50.1 µM [inhibitor, partial curve]",
Cc1cc(/C=C2/C(=O)N(C)C(=S)N2C)c(C)n1C1CC1,"inconclusive: 44.7 µM [inhibitor, partial curve]",
N#CC1=C(N)SC(N)=C(C#N)C1c1ccc([N+](=O)[O-])cc1,"inconclusive: 39.8 µM [inhibitor, partial curve]",
Cc1cc2nc(CS)[nH]c2cc1C,"inconclusive: 31.6 µM [inhibitor, partial curve]",
Nc1cn(C2OC(CO)C(O)C2O)c(=O)[nH]c1=O (configuration not stated),"inconclusive: 28.2 µM [inhibitor, full curve]",
CCC1CCCCN1Cc1c(O)ccc2c(=O)c(Oc3ccccc3Cl)c(C(F)(F)F)oc12 (configuration not stated),"inconclusive: 31.6 µM [inhibitor, single point]",
O=C(NC(NC(=S)Nc1cc(Cl)ccc1Cl)C(Cl)(Cl)Cl)c1ccco1 (configuration not stated),"inconclusive: 0.501 µM [inhibitor, full curve]",
Cc1ccccc1Cn1c(=N)n(CC(=O)c2ccco2)c2ccccc21,"inconclusive: 10 µM [inhibitor, full curve]",
Cc1ccc(S(=O)(=O)N2CCC(Oc3cccc(C(F)(F)F)c3)CC2)cc1,inactive,
CCc1nc2ccc(C(=O)NCc3ccc(OC)c(OC)c3)cc2nc1CC,inactive,
N#CCC(=O)Nc1ccc(C(=O)OCC(=O)NCc2ccc3c(c2)OCO3)cc1,inactive,
CCOC(=O)C1=C(CS(=O)(=O)c2ccccc2)NC(=O)NC1c1ccccc1OCC (configuration not stated),active: 25.1 µM,
COc1ccccc1CNC(=O)c1ccc(-c2nc(CS(=O)c3ccc(C)cc3)c(C)o2)cc1 (configuration not stated),active: 12.6 µM,
COc1cc(/C=N/NC(=O)c2cccnc2)ccc1OS(=O)(=O)c1cc(C)ccc1C,inactive,

SMILES,Potency,"activity change, negative = inhibition"
O=C1c2cccc3c([N+](=O)[O-])ccc(c23)C(=O)N1c1ccccn1,active: 20 µM,
O=C(c1cccc(F)c1)N1CCN(C2CCCCC2)CC1,"inconclusive: 2.24 µM [inhibitor, full curve, poor fit]",
CN1c2ccccc2N(C)C1(C)c1cccc2ccccc12,"inconclusive: 35.5 µM [inhibitor, partial curve]",
COC(=O)c1cccc(NC(=O)CSc2nnc(COc3cccc(C)c3)n2C)c1,"inconclusive: 1.41 µM [inhibitor, full curve, poor fit]",
CN(C)CCNC(=O)c1cccc(S(=O)(=O)Nc2ccc(F)cc2)c1,"inconclusive: 39.8 µM [inhibitor, full curve]",
O=C(NCc1ccccn1)c1cc(-c2ccccc2)on1,inactive,
COc1cc2c(cc1OC)C1O[C@](CCCCN3C(=O)c4ccccc4C3=O)(C2)Oc2cc(C)n(Cc3ccccc3)c(=O)c21,,inconclusive: -52.3% [inhibitor] [at 22.9 µM]
CCOc1nc(CC)nc(NC(=O)NS(=O)(=O)c2ccccc2Cl)n1,"inconclusive: 4.47 µM [inhibitor, partial curve, poor fit]",
O=S(=O)(CCN1CCN(C(c2ccccc2)c2ccccc2)CC1)C(F)(F)F,"inconclusive: 0.316 µM [inhibitor, full curve, poor fit]",
CCCCN1C(=O)CN(C2CCCCCC2)C(=O)C1c1ccc(OCC)c(OC)c1 (configuration not stated),inactive,
O=C(/C=C/c1ccco1)N1CCN(c2ccccc2)CC1,active: 11.2 µM,
O=C1C2=C(C(=O)c3ccccc31)C1O[C@](c3ccsc3)(Cc3ccccc31)O2,"inconclusive: 10 µM [inhibitor, partial curve]",
COc1ccccc1OCCN1C(=O)S/C(=C\c2ccco2)C1=O,"inconclusive: 44.7 µM [inhibitor, partial curve]",
CC1Cc2ccccc2N1CC(=O)NC(=O)NCc1ccco1 (configuration not stated),"inconclusive: 50.1 µM [inhibitor, partial curve]",
O=c1oc2c3c4c(cc2s1)CCCN4CCC3,"inconclusive: 28.2 µM [inhibitor, full curve, poor fit]",
CCOc1cc([C@@H]2C[C@H]3CN(c4ccccc4)C(=O)[C@]34CCCN24)ccc1OC,"inconclusive: 28.2 µM [inhibitor, full curve]",
CS(=O)(=O)c1ncc(Cl)c(C(=O)N2CCN(c3cccc(Cl)c3)CC2)n1,active: 3.55 µM,
O=C(Nc1nc(-c2ccccc2)cs1)C1CCCN(S(=O)(=O)c2ccccc2)C1 (configuration not stated),,inactive: -2.68% [at 11.4 µM]
CN(CCOc1ccccc1)C(=O)c1cc(-c2ccco2)nc2ccccc12,active: 3.16 µM,
O=C(CSC1=NCCS1)N1CCCCCC1,"inconclusive: 89.1 µM [inhibitor, single point]",
Cc1cc(C)c(C)c(S(=O)(=O)NC(C(=O)NCCc2ccco2)C(C)C)c1C (configuration not stated),"inconclusive: 50.1 µM [inhibitor, partial curve]",
CNC(=S)N/N=C(\C)c1ccc2c(c1)OCO2,"inconclusive: 1.58 µM [inhibitor, full curve, poor fit]",
CCN(CC)C(=O)Nc1cnc2ccccc2c1,inactive,
COc1ccc(-n2c(O)c(/C=C3\C=Nc4ccc(Br)cc43)c(=O)[nH]c2=O)cc1,"inconclusive: 8.91 µM [inhibitor, full curve]",
